From PubChem BioAssay AID995 (National Center for Advancing Translational Sciences (NCATS), 2007)
About 710 (0.99%) of roughly 72,000 compounds were called active. The shares of active, inactive and inconclusive entries below differ from those in the screen. The call rests on the fitted dose curve; in most records, active means well fitted inhibition curve with a large enough effect; inconclusive means small, poorly fitted or top-dose-only effect; inactive means no such curve, though single readings can be large or run the other way. No potency is given beside an inconclusive call; the fits are too rough.

Experiment: qHTS Assay for Inhibitors of the ERK Signaling Pathway using a Homogeneous Screening Assay; further: nearly all actives have a fitted effect of over 55% in size
Details: HEK293-V1b, vasopressin-stimulated pERK AlphaScreen; activity, negative = inhibition: at 57.5 µM (top of the series) unless noted
In short: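 Phosphorylated ERK1/2 detected via AlphaScreen bead proximity in lysates of V1b-expressing HEK293 cells given 25 nM vasopressin for 5 min after 30 min compound exposure (37 °C). AC50 from Hill equation; basal DMSO 0%, vasopressin 100%.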
On the % scale 0 is the no-effect control and ±100 the full control effect; potency means the concentration at half of the fitted maximal effect; tags describe the fitted curve by direction and shape.

SMILES	Potency	activity, negative = inhibition
O=C(c1cnn2c(C(F)F)cc(C3CC3)nc12)N1CCc2ccccc2C1	inconclusive [inhibitor, full curve, poor fit]	–
Cn1c(NCC2CCCO2)nc2c1c(=O)n(Cc1ccccc1)c(=O)n2C (stereo not given)	inconclusive [inhibitor, full curve, poor fit]	–
Cc1cc(-c2ccccc2)c2c3c(cn2n1)c(=O)n(C)c(=O)n3C	inconclusive [inhibitor, single point]	–
O=C(O)CCc1ccc(-c2cccs2)n1-c1ccc(C(=O)O)cc1	inconclusive [inhibitor, partial curve]	–
Cc1ccc2c(c1)cc(CN(Cc1cccs1)C(=O)c1ccco1)c1nnnn12	inconclusive [inhibitor, partial curve]	–
Cc1ccc(CC2CC(=O)N(Cc3ccco3)C2=O)cc1 (stereo not given)	inconclusive [inhibitor, partial curve, poor fit]	–
CCCn1c(CCC(=O)O)ccc1-c1ccc(F)cc1	inconclusive [inhibitor, partial curve]	–
CCOC(=O)Cc1csc(NC(=O)c2csc3c2CCCC3)n1	inconclusive [inhibitor, partial curve]	–
O=C(Oc1ccc(-c2cn3c(n2)SCC3)cc1)c1ccccc1	active: 15.8 µM	–
COc1cc(NC(=O)c2cccs2)c(C(=O)OCC(=O)NCc2ccco2)cc1OC	inconclusive [inhibitor, partial curve]	–
O=C(Oc1ccccc1)N1CCC2(CC1)CCN(c1ccncc1)CC2	inconclusive [inhibitor, single point]	–
CCn1cc(C(=O)NCC2COc3ccccc3O2)c2cc(OC)c(OC)cc2c1=O (stereo not given)	inconclusive [inhibitor, full curve, poor fit]	–
Cc1ccc2oc(=O)c3c4cc(O)c(O)c(C)c4oc3c2c1	inactive	–
CCC(=O)Nc1c(OC(=O)CC)ccc2c(C)cc(=O)oc12	inactive	–
COc1c(Cl)cc(Cl)cc1C(=O)Nc1ccccc1N1CCN(C(C)=O)CC1	inconclusive [inhibitor, partial curve]	–
CCOC(=O)Cc1cc(=O)n2[nH]c(C)c(-c3ccccc3)c2n1	inactive	–
NC(=NCc1ccc(Cl)c(Cl)c1)NC(=O)c1nc(Cl)c(N)nc1N	inactive	–
CN(C)c1nc(N)c(C(=O)Nc2cccnc2)nc1Cl	inconclusive [inhibitor, single point]	–
COc1ccc2c(-c3cccnc3)cc(=O)[nH]c2c1	inactive	–
COc1ccc(Nc2cccccc2=O)cc1	inconclusive [inhibitor, single point]	–
O=C(O)c1cc(NCc2ccccc2C(F)(F)F)ccc1N1CCOCC1	inactive	–
Cn1c2c(c3ccccc31)CC/C2=N\O	inconclusive [inhibitor, single point]	–
Cn1c(C(=O)Nc2ccc3c(c2)OCO3)cc2c(=O)n(C)c3ccccc3c21	inconclusive [inhibitor, partial curve]	–

SMILES	Potency	activity, negative = inhibition
C=CCn1c(SCc2cc(=O)n3ccsc3n2)nc2scc(C3CC3)c2c1=O	inconclusive [inhibitor, partial curve]	–
Cc1ncsc1C(=O)NCc1ccc(N2CCCC2=O)cc1	inactive	–
COc1cc(-c2noc(-c3ccco3)n2)cc(OC)c1OC	inactive	–
CCN(CC)c1ccc(NC(=O)c2ccc(Br)o2)c(C)c1	active: 25.1 µM	–
CC(C)(C)NC(=O)NC(=O)COC(=O)C1CC(=O)N(Cc2ccccc2)C1 (stereo not given)	inconclusive [inhibitor, partial curve]	–
CCCOC(=O)c1ccc(Oc2cn[nH]c2-c2ccc(OCC)cc2O)cc1	inconclusive [inhibitor, single point]	–
CCC(c1nnnn1Cc1ccco1)N(CCc1ccccc1)Cc1cc2cc(C)ccc2[nH]c1=O (stereo not given)	inactive	–
COc1ccc2c(c1OC)C(=O)N(c1ccc3c(c1)CCC3)C2=O	inconclusive [inhibitor, single point]	–
Cc1ccc2oc3c(c(=O)c2c1)C(c1cccc(O)c1)N(c1ccccn1)C3=O (stereo not given)	inconclusive [inhibitor, partial curve, poor fit]	–
Cc1ccc(Cn2nnc3c(=O)[nH]c(C4CCN(S(=O)(=O)c5cc(C)ccc5C)CC4)nc32)cc1	inconclusive [inhibitor, partial curve]	–
Fc1ccc(CSc2nnc(-c3cnccn3)n2Cc2ccco2)cc1	inconclusive [inhibitor, single point]	–
N#Cc1nc(-c2ccccc2F)oc1NCc1cccc2c1OCO2	inconclusive [inhibitor, partial curve]	–
O=C(NCCC1=CCCCC1)C1COc2ccccc2O1 (stereo not given)	inconclusive [inhibitor, single point]	–
Cc1nc2cnc(N3CCOCC3)nc2n(C2CC2)c1=O	inactive	–
CN(C)Cc1ccccc1-c1nc(NCc2ccccc2)c2ccccc2n1	inactive	–
Cc1cc(C(=O)Nc2ccc(S(=O)(=O)Nc3nccs3)cc2)c(C)o1	inconclusive [inhibitor, partial curve]	–
COc1cc2c(cc1OC)C1=C(C#N)CCC(=O)N1CC2	inconclusive [inhibitor, full curve]	–
CCOC(=O)c1c(NC(=O)CSc2nnc(-c3cccnc3)o2)sc(C(C)=O)c1C	inconclusive [inhibitor, partial curve, poor fit]	–
Cc1cc(C(=O)CSc2nnc(N)s2)c(C)n1CCc1ccc(F)cc1	inconclusive [inhibitor, single point]	–
CC(C)=NO[C@@H](C)CN1CCCc2nc(C)c(C)cc21	–	inactive: 6.74% [at 11.5 µM]
COc1ccc2[nH]cc(CCNc3ccnc(-c4ccc(N(C)C)cc4)n3)c2c1	inconclusive [inhibitor, partial curve]	–
C/C=C(/C)C(=O)OC1C(OC(C)=O)[C@@]2(CO)C(O)C[C@@]3(C)C(=CCC4[C@@]5(C)CCC(OC6OC(C(=O)O)[C@@H](O[C@@H]7OC(CO)C(O)C(O)C7O)C(O)[C@H]6O[C@@H]6OC(CO)C(O)C(O)C6O)[C@](C)(CO)C5CC[C@@]43C)C2CC1(C)C (stereo not given in full)	inconclusive [inhibitor, single point]	–
